Test results: PubChem BioAssay AID651670 (Sanford-Burnham Center for Chemical Genomics, 2012)
Some entries of the source have several records that differ or are many. The list is limited to them.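 How the source made its calls: active means IC50 at or below 20 µM; inactive means the rest.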 There may be further records. The values listed for one entry are repeated measurements in other runs, samples, wells, individuals or studies. A tag in brackets gives the origin of a value. The letters are not those of the source and start again with each entry.

Target: Fatty acid synthase (Homo sapiens) (UniProt P49327)
UniProt P49327, sequence (P49327 whole entry, looked up, the tested form may be a part): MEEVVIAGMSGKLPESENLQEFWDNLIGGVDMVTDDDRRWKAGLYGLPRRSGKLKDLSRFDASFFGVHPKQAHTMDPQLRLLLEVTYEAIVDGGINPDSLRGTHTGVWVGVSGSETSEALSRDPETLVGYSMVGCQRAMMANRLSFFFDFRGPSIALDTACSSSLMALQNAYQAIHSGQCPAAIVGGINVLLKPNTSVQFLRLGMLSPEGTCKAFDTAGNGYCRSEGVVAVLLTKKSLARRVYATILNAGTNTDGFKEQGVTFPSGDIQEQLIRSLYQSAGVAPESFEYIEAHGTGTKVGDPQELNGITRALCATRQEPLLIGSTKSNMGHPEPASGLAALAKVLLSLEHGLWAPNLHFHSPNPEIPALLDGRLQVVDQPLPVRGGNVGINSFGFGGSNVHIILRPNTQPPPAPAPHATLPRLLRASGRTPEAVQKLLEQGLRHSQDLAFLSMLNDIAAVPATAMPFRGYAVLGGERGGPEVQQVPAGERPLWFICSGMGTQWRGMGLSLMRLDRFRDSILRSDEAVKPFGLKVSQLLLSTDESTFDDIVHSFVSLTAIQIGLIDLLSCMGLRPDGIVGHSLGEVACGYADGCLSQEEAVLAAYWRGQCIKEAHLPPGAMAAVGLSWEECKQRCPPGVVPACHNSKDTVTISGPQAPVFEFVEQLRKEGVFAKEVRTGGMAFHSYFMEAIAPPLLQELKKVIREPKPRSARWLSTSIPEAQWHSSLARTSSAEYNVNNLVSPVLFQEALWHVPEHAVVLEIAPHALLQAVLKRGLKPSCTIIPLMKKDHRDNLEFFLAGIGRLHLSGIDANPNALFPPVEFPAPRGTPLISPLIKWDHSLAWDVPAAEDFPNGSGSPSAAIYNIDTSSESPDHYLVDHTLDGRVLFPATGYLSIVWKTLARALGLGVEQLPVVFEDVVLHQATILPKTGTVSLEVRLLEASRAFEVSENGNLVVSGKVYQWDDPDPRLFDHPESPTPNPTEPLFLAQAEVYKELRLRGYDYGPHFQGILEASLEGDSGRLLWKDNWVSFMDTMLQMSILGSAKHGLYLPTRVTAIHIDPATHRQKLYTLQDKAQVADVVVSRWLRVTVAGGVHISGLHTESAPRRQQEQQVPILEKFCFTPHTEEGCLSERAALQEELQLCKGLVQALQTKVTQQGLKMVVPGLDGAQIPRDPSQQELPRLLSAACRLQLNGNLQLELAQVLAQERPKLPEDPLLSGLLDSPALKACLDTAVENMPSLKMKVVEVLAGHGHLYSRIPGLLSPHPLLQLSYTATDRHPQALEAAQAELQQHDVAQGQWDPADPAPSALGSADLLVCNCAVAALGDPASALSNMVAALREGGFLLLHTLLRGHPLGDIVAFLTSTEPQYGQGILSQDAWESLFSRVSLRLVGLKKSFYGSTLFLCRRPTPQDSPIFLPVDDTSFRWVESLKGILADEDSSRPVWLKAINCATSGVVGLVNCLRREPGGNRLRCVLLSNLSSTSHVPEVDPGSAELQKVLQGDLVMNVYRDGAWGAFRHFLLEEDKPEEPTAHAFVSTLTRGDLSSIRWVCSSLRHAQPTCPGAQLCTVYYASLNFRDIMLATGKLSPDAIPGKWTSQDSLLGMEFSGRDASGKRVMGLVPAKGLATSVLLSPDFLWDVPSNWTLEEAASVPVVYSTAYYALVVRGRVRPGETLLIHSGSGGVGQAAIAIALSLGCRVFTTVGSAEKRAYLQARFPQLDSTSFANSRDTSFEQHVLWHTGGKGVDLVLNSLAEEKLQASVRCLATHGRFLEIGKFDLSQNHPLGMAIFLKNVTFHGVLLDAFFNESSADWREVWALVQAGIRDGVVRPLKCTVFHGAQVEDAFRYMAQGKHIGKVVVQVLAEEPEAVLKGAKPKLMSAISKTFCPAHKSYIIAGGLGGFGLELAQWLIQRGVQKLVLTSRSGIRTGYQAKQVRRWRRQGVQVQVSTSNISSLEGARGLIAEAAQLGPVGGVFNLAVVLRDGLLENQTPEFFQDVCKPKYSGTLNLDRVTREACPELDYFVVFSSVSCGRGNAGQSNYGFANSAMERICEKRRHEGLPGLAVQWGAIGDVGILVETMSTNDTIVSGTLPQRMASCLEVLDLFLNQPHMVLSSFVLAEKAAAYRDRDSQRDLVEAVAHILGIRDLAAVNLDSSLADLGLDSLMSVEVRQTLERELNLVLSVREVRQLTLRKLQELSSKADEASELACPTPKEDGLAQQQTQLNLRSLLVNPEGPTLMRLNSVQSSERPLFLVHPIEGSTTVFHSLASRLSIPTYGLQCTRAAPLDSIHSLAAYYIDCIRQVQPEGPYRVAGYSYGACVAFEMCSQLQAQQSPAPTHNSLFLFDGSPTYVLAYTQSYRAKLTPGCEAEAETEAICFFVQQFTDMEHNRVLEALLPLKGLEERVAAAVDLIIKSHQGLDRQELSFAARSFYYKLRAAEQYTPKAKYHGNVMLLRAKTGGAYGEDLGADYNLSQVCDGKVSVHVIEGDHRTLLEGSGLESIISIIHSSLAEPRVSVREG
Assay: FAS thioesterase domain inhibitors, SAR follow-up, biochemical, endpoint fluorescence intensity, analogs (AID 651670)
Conditions: recombinant FAS-TE, OMFH fluorogenic substrate

`COc1ccc(CN(C)C(=O)Cc2ccc(S(=O)(=O)N3CCCCC3)s2)cc1` was tested, and the IC50 was “inactive [sample A] and 17.6 µM [sample B]”.
